Laboratory results: PubChem BioAssay AID488969 (Vanderbilt High Throughput Screening Facility, 2010)
The full ranking holds about 110,000 compounds; the median of “z-score” is about -0.1, and the highest 2% start at about 2. The list shows a part of the results.

The compounds below were run against Metabotropic glutamate receptor 8 (Rattus norvegicus) (UniProt P70579) (assay: mGluR8 Gi/Go-coupled signaling modulation – cell-based, rat, thallium flux, HTS, primary screen (AID 488969)). Conditions: HEK293 rat mGluR8, GIRK (G protein-gated inwardly rectifying potassium channel) thallium flux, FluoZin2; at 10 µM; stronger effect = higher value; submaximal glutamate (EC20) added with thallium.
UniProt P70579, sequence (P70579 whole entry, looked up): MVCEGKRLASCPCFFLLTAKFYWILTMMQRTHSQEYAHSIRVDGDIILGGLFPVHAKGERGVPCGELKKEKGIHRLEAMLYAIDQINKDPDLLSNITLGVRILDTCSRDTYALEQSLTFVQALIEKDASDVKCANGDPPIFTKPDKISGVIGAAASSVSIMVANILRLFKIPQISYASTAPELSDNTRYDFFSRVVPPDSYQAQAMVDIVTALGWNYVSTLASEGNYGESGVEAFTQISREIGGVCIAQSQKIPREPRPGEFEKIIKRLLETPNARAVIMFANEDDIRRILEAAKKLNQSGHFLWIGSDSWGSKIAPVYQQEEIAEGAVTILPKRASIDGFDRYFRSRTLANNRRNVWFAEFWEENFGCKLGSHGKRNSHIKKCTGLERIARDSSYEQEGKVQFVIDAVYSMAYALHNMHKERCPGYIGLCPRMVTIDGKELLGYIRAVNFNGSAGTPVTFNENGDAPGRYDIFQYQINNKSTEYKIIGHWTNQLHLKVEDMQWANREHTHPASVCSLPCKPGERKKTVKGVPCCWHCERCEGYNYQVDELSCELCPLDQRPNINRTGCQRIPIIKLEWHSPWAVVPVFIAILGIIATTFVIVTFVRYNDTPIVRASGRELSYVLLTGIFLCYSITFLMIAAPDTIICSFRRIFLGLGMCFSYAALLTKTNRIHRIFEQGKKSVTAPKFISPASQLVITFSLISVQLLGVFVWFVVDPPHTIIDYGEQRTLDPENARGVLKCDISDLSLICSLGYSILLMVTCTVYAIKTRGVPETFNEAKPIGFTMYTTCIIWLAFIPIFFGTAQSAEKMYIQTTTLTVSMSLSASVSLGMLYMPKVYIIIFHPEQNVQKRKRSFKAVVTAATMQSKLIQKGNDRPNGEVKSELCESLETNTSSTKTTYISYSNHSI

Row | Compound | z-score
1 | COc1ccc2c(c1)C1(Nc3ccccc3-c3nc4ccccc4n31)C(=O)N2 (stereo unspecified) | -0.00926
2 | COC(=O)C1CSc2[nH]c(=O)sc2C1c1ccc(OC)c(OC)c1 (stereo unspecified) | 0.116
3 | COCCOc1cc(-n2ccnc2SC)c(Cl)cc1Cl | -0.449
4 | CCCCN1C2=C(C(=O)CCC2)C(c2ccc(Cl)c(Cl)c2)C2=C1c1ccccc1C2=O (stereo unspecified) | -0.878
5 | COc1cc2c(cc1NC(=S)Nc1ccccc1C)oc1ccccc12 | -0.198
6 | C=CCNCCCCOc1c(Cl)cc(C)cc1Br | 0.796
7 | Cc1ccc2c(c1)-c1c(cnn1CC(=O)N(Cc1ccco1)C1CCCCC1)CO2 | -0.367
8 | O=C(c1cn(-c2ccccc2)nc1-c1cccs1)N(CCO)Cc1ccccc1 | -0.178
9 | COc1ccc(S(=O)(=O)Nc2ccccc2C(=O)NC(C)(C)C)cc1OC | -0.0109
10 | O=C(NN=C1CCCC1)c1cc(-c2ccccc2)n[nH]1 | -0.217
11 | COc1cc2nc(N(C)C)nc(N)c2cc1OC | 0.0114
12 | COc1ccc(C2CC(C(F)(F)F)n3nc(C(=O)N(C)Cc4cn(C)nc4C)c(Cl)c3N2)cc1 (stereo unspecified) | -0.155
13 | Cc1ccc(C)c(CSc2nnc(-c3cccs3)n2Cc2ccco2)c1 | -0.588
14 | COc1ccc(/C=C(/NC(C)=O)C(=O)O)cc1 | -0.494
15 | Cc1cc(C)n(C(=O)c2nn(C)c(C)c2[N+](=O)[O-])n1 | -0.059
16 | COc1cc(OC)cc(C(=O)NCCN2CCOCC2)c1 | -0.064
17 | CCOP(=O)(OCC)C(Nc1cccc(C(F)(F)F)c1)c1ccc(C)cc1 (stereo unspecified) | -0.302
18 | Cc1nn(Cc2ccccc2Cl)c2sc(C(=O)NCc3ccc4c(c3)OCO4)cc12 | -0.731
19 | N#CCC(CNc1ncc(C(F)(F)F)cc1Cl)OC(=O)c1cccc(C(F)(F)F)c1 (stereo unspecified) | -0.197
20 | O=C(CSc1nnc(-c2ccncc2)n1C1CCCCC1)Nc1cccc(O)c1 | -0.0405
21 | c1ccc(CNc2cnccn2)cc1 | 0.162
22 | Cc1ccc(Nc2nc(N)nc(CSc3nccn3C)n2)c(C)c1 | 0.886
23 | CN1C2C=C3C(C#N)=C(N)C(C#N)(C#N)[C@@H](c4cccc(F)c4)[C@@H]3C1CC2 (stereo partly specified) | 1.32
24 | CCOC(=O)NC(=O)CSc1nc(C)cc(C(F)(F)F)c1C#N | -0.337

Row | Compound | z-score
25 | O=C(c1ccc(Cl)c(S(=O)(=O)N2CCCC2)c1)N1CCN(c2ccccn2)CC1 | 0.515
26 | COC(=O)Nc1nn(Cc2ccccc2F)cc1Br | -0.155
27 | O=C(NCCOC(=O)c1cccs1)c1cccnc1 | -0.116
28 | CCc1nnc(NC(=O)CSc2nnc3ncccn23)s1 | -0.0219
29 | COCCNC(=O)c1cc(-c2ccc(OC)c(OC)c2)on1 | -0.0363
30 | CCOC(=O)Nc1cccc(C(=O)O)c1 | -0.247
31 | CC1(c2ccc3noc(-c4ccc(F)cc4)c3c2)OCCO1 | 0.16
32 | COc1ccc(S(=O)(=O)Cc2ccc(C(=O)N3CCCC3)o2)cc1 | 0.186
33 | CCCCN1C(=O)C2NN=C(C(=O)OCC)C2C1=O (stereo unspecified) | 0.0375
34 | O=C(/C=C/c1cc2c(cc1Br)OCO2)NCc1ccc(F)cc1 | -0.0959
35 | CC(C)c1ccc(Nc2ncccc2C#N)cc1 | -0.199
36 | Oc1ccc(-c2cn3c(n2)SCC3)cc1 | -0.465
37 | CCCOc1cc(CC(=O)NCc2ccco2)ccc1OC | 0.674
38 | CN(C)c1cc(=O)n2c(n1)SCCC2 | -0.0576
39 | O=C1C2C3c4ccccc4C(c4ccccc43)C2C(=O)N1c1cccnc1 (stereo unspecified) | -0.0955
40 | COc1ccc2c(CC(=O)Nc3c(C)n(C)n(-c4ccccc4)c3=O)coc2c1 | -0.241
41 | CCC(=O)Nc1ccc(S(=O)(=O)c2ccc(NC(=O)CC)cc2)cc1 | 0.658
42 | CC(=O)Oc1ccc2ccccc2c1C(NC(=O)Cc1ccccc1)c1ccccc1 (stereo unspecified) | 0.0827
43 | COc1ccccc1N1CCN(C(CNS(=O)(=O)c2cccs2)c2cccnc2)CC1 (stereo unspecified) | -0.123
44 | C=CCn1c(C)cc(C(=O)COC(=O)C2CC(=O)N(Cc3ccccc3)C2)c1C (stereo unspecified) | -0.908
45 | Cc1cc(C)n(-c2nc(-c3ccccc3)cs2)n1 | -0.00661
46 | COc1ccc(-c2nnc(SC(C)C(=O)Nc3nccs3)n2Cc2ccccc2)cc1OC (stereo unspecified) | -0.987
47 | CN(C(=S)Nc1ccc(Oc2ccccc2)cc1)C1CCCCC1 | 0.0776
48 | Cc1cc(C)n2nc(C(=O)OCCOc3ccc(F)cc3)nc2n1 | -0.232

Row | Compound | z-score
49 | C=CCn1c(CCNC(=O)c2ccccc2F)nnc1SCc1nc2ccccc2c(=O)[nH]1 | -0.0364
50 | O=C(Nc1ccccc1F)c1ccccc1-c1ccccc1 | -0.421
51 | CC1CCCC(NC(=O)CN(C)S(=O)(=O)c2cccc3cccnc23)C1C (stereo unspecified) | -0.113
52 | COc1ccc(S(=O)(=O)Nc2ccc(F)cc2)cc1N(C)S(=O)(=O)c1ccc(Cl)cc1 | 0.223
53 | O=C(NNC(=O)c1cc(OCC(F)(F)F)ccc1OCC(F)(F)F)c1ccc(Cl)c(Cl)c1 | 0.0582
54 | O=C(COC(=O)c1ccccc1SCC(=O)NC1CCCCC1)NC1CCCCC1 | -0.0361
55 | CCCn1c(SCC(=O)Nc2nnc(C(C)C)s2)nc2c1c(=O)n(C)c(=O)n2C | -0.147
56 | O=C(Nc1nc2ccccc2[nH]1)c1ccccc1F | 0.299
57 | Cc1csc(NC(=O)c2ccc(S(=O)(=O)N(C)c3ccccc3)cc2)n1 | 0.497
58 | O=C(COc1cccc(NC(=O)c2cccc([N+](=O)[O-])c2)c1)c1ccc(Br)cc1 | -0.145
59 | CCOCCc1nnc(NC(=O)CN2C(=O)c3ccccc3C2=O)s1 | 1.6
60 | CCCCN(CC)C(=O)c1ccc(-c2ccccc2)cc1 | 0.132
61 | Cc1cc(Nc2c(C)n(C)n(-c3ccccc3)c2=O)n2c(nc3ccccc32)c1C#N | -0.0598
62 | NC(=O)c1ccc(NC(=O)c2ccccc2S(=O)(=O)c2ccccc2[N+](=O)[O-])cc1 | 0.483
63 | CCOC(=O)CN1CC23C=CC(O2)C(C(=O)NC2CCCCC2)C3C1=O (stereo unspecified) | 0.245
64 | O=C(NCC1CCCO1)c1sc2ccccc2c1Cl (stereo unspecified) | -0.467
65 | Cn1nnnc1SCC(=O)N1c2ccccc2CCc2ccccc21 | -0.0219
66 | COc1ccc(Cc2nnc(NC(=O)C3CCCO3)s2)cc1 (stereo unspecified) | -0.302
67 | O=C(NCc1ccco1)Oc1ccccc1 | -0.208
68 | CN(c1cccc(NC(=O)CN(c2cccc(Cl)c2)S(=O)(=O)c2ccccc2)c1)S(C)(=O)=O | -0.202
69 | Nc1ccccc1-c1nc2ccccc2[nH]1 | -0.0477
70 | Cc1cccc(N2C(=O)CC(N3CCN(Cc4ccc5c(c4)OCO5)CC3)C2=O)c1 (stereo unspecified) | -0.681
71 | Cc1nn(-c2ccc(F)cc2)c2c1cc(C#N)c1nc3ccccc3n12 | -0.176
